A lower IC50 marks a more sensitive line; a fit beyond the top or the lowest dose is shown as a bound at that dose. For AUC the same curve is integrated over the 256-fold range of doses and scaled to a fraction; values near 1 show little effect. For some assays here: The top dose, if marked as inferred, comes from the curve model; the source does not state it. For some assays here: An entry number marks a drug with two screens in the source, which often give different values.
What was measured:
Test in all cases: Viability of human cancer cell lines after 72 h of drug (GDSC screen)
BX-912 = compound: O=C(Nc1cccc(Nc2ncc(Br)c(NCCc3cnc[nH]3)n2)c1)N1CCCC1 [BX-912]; settings: top dose 10.24 µM; top dose inferred
Method: (§1)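 Human cancer cell lines in 384-well plates, medium with 10% serum, drug for 72 h over a 256-fold dose range (nine 2-fold or five 4-fold steps up to the top dose). Adherent lines were fixed and stained with the nucleic acid dye Syto60, suspension lines read with resazurin; signal relative to control wells, capped at 0 and 100%. One two-parameter sigmoid per drug and line, fitted in a mixed model over all curves with the slope shared within a line.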

LAQ824 = compound: O=C(/C=C/c1ccc(CN(CCO)CCc2c[nH]c3ccccc23)cc1)NO [LAQ824]; settings: top dose 1.024 µM; top dose inferred
Method: as §1

HG-5-88-01 = compound: COc1cc(N2CCC(C(N)=O)CC2)ccc1Nc1nc(N)c(Cl)c(Nc2ccccc2S(=O)(=O)C(C)C)n1 [HG-5-88-01]; settings: top dose 10 µM; top dose inferred
Method: as §1

Elesclomol = compound: CN(NC(=O)CC(=O)NN(C)C(=S)c1ccccc1)C(=S)c1ccccc1 [Elesclomol]; settings: top dose 0.2 µM; top dose inferred
Method: as §1

OSI-930 = compound: O=C(Nc1ccc(OC(F)(F)F)cc1)c1sccc1NCc1ccnc2ccccc12 [OSI-930]; settings: top dose 10.24 µM
Method: as §1

VNLG/124 = compound: CCCC(=O)OCc1ccc(OC(=O)/C=C(C)/C=C/C=C(C)/C=C/C2=C(C)CCCC2(C)C)cc1 [VNLG/124]; settings: top dose 5.12 µM; top dose inferred
Method: as §1

Bleomycin = compound: Cc1c(N)nc([C@H](CC(N)=O)NC[C@H](N)C(N)=O)nc1C(=O)N[C@H](C(=O)N[C@H](C)[C@@H](O)[C@H](C)C(=O)N[C@H](C(=O)NCCc1nc(-c2nc(C(=O)NCCC[S+](C)C)cs2)cs1)[C@@H](C)O)[C@@H](OC1OC(CO)C(O)C(O)C1OC1OC(CO)C(O)C(OC(N)=O)C1O)c1cnc[nH]1 [Bleomycin]
Method: as §1

Masitinib = compound: Cc1ccc(NC(=O)c2ccc(CN3CCN(C)CC3)cc2)cc1Nc1nc(-c2cccnc2)cs1 [Masitinib]; settings: top dose 20 µM
Method: as §1

NSC-87877 = compound: O=S(=O)(O)c1ccc2cc(N=Nc3cc(S(=O)(=O)O)c4cccnc4c3O)ccc2c1 [NSC-87877]; settings: top dose 16 µM; top dose inferred
Method: as §1

[1] = top dose 50 µM, screen: GDSC drug entry 1378, top dose inferred
[2] = top dose 64 µM, screen: GDSC drug entry 190

| Cell Line | AUC (BX-912) | IC50 (BX-912) [µM] | AUC (LAQ824) | IC50 (LAQ824) [µM] | AUC (HG-5-88-01) | IC50 (HG-5-88-01) [µM] | AUC (Elesclomol) | IC50 (Elesclomol) [µM] | AUC (OSI-930) | IC50 (OSI-930) [µM] | AUC (VNLG/124) | IC50 (VNLG/124) [µM] | AUC (Bleomycin; [1]) | IC50 (Bleomycin; [1]) [µM] | AUC (Bleomycin; [2]) | IC50 (Bleomycin; [2]) [µM] | AUC (Masitinib) | IC50 (Masitinib) [µM] | AUC (NSC-87877) | IC50 (NSC-87877) [µM] |
| --- | --- | --- | --- | --- | --- | --- | --- | --- | --- | --- | --- | --- | --- | --- | --- | --- | --- | --- | --- | --- |
| A498 (kidney, adherent) | 0.96 | > 10.2 | 0.882 | > 1.02 | 0.956 | > 10 | 0.683 | 0.0528 | 0.97 | > 10.2 | 0.977 | > 5.12 | 0.481 | 2.7 | 0.908 | > 64 | 0.865 | > 20 | 0.976 | > 16 |
| U-2-OS (osteosarcoma, adherent) | 0.97 | > 10.2 | 0.532 | 0.0789 | 0.919 | > 10 | 0.558 | 0.0183 | 0.974 | > 10.2 | 0.979 | > 5.12 | 0.36 | 1.23 | 0.879 | > 64 | 0.974 | > 20 | 0.966 | > 16 |
| KGN (ovary, adherent) | 0.66 | 1.96 | 0.442 | 0.0429 | 0.945 | > 10 | 0.858 | > 0.2 | 0.968 | > 10.2 | 0.945 | > 5.12 | 0.173 | 0.247 | 0.055 | < 0.25 | 0.866 | > 20 | 0.981 | > 16 |
| MDA-MB-175-VII (breast, adherent) | 0.973 | > 10.2 | 0.646 | 0.17 | 0.986 | > 10 | 0.917 | > 0.2 | 0.954 | > 10.2 | 0.979 | > 5.12 | 0.964 | > 50 | 0.395 | 1.99 | 0.879 | > 20 | 0.924 | > 16 |
| HCC1954 (breast, adherent) | 0.983 | > 10.2 | 0.57 | 0.103 | 0.964 | > 10 | 0.983 | > 0.2 | 0.98 | > 10.2 | 0.98 | > 5.12 | 0.58 | 5.35 | 0.842 | 56.3 | 0.825 | 14.7 | 0.962 | > 16 |
| HCT-15 (large intestine, adherent) | 0.986 | > 10.2 | 0.777 | 0.438 | 0.985 | > 10 | 0.343 | 0.00446 | 0.957 | > 10.2 | 0.985 | > 5.12 | 0.585 | 5.41 | 0.123 | < 0.25 | 0.894 | > 20 | 0.854 | 13.9 |
| HCC38 (breast, adherent) | 0.936 | > 10.2 | 0.362 | 0.0257 | 0.984 | > 10 | 0.882 | > 0.2 | 0.986 | > 10.2 | 0.984 | > 5.12 | 0.651 | 8.52 | 0.128 | < 0.25 | 0.973 | > 20 | 0.942 | > 16 |
| BT-474 (breast, adherent) | 0.964 | > 10.2 | 0.445 | 0.0446 | 0.954 | > 10 | 0.56 | 0.0186 | 0.927 | > 10.2 | 0.986 | > 5.12 | 0.96 | > 50 | 0.979 | > 64 | 0.848 | 17.7 | 0.968 | > 16 |
| LP-1 (myeloma, suspension) | 0.938 | > 10.2 | 0.446 | 0.0467 | 0.929 | > 10 | 0.981 | > 0.2 | 0.881 | 7.61 | 0.945 | > 5.12 | 0.992 | > 50 | 0.973 | > 64 | 0.802 | 7.95 | 0.979 | > 16 |
| T84 (large intestine, adherent) | 0.941 | > 10.2 | 0.384 | 0.0306 | 0.881 | > 10 | 0.951 | > 0.2 | 0.932 | > 10.2 | 0.958 | > 5.12 | 0.931 | > 50 | 0.663 | 11.5 | 0.895 | > 20 | 0.976 | > 16 |
| SW1573 (lung adenocarcinoma, adherent) | 0.87 | > 10.2 | 0.654 | 0.199 | 0.851 | > 10 | 0.498 | 0.0123 | 0.966 | > 10.2 | 0.975 | > 5.12 | 0.487 | 2.85 | 0.134 | < 0.25 | 0.931 | > 20 | 0.965 | > 16 |
| NCI-H460 (large cell lung carcinoma, adherent) | 0.987 | > 10.2 | 0.382 | 0.0313 | 0.982 | > 10 | 0.364 | 0.00547 | 0.985 | > 10.2 | 0.99 | > 5.12 | 0.123 | 0.233 | 0.562 | 5.8 | 0.987 | > 20 | 0.977 | > 16 |
| NCI-H1975 (lung adenocarcinoma, adherent) | 0.96 | > 10.2 | 0.266 | 0.0123 | 0.89 | > 10 | 0.403 | 0.0065 | 0.943 | > 10.2 | 0.969 | > 5.12 | 0.676 | 10.5 | 0.528 | 4.82 | 0.918 | > 20 | 0.98 | > 16 |

Source: the supplement of paper PMC4967469
